# Source: PubChem BioAssay (NCI)
# Values joined by “and” are separate entries in the source; they are usually repeats but may differ in a detail not shown here. Equal entries are not always repeated.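 Five concentrations, 48 hours, 96-well plates. GI50: concentration for 50% inhibition of growth. TGI marks complete inhibition of growth.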 Active and inactive are the calls of the source. Cut-off read from the data, not from the text of the source: active = GI50 below about 0.43 µM; inactive = the rest.
# Tested on: NCI-H322M lung
# Experiment: inhibition of tumour cell growth, NCI panel, 48 h
SMILES,TGI,GI50,outcome
Cc1noc(C)c1-n1nc2ccc3nonc3c2n1,> 100 µM,–,–
NC(=O)c1c(Br)n(C2OC(CO)C(O)C2O)c2ncnc(N)c12 (stereo not drawn),19 µM,1.89 µM,–
C=CCNC(=S)/N=C\C(C(=O)OCC)=C(/O)C(=O)OCC,> 100 µM,–,–
C(CCCCc1nnc(N2CCOCC2)o1)CCCc1nnc(N2CCOCC2)o1,> 100 µM,–,–
O=C1CCC/C=C\C[C@H]2C=CC(=O)/C2=C/C[C@H](CCc2cccc(C(F)(F)F)c2)O1,13.3 µM,3.96 µM,–
CCC1=C(CC)C1(C#N)[N+](=O)[O-],> 100 µM,–,–
S=c1oc(CCCCCCCCc2nn(CNc3ccccc3)c(=S)o2)nn1CNc1ccccc1,> 100 µM,–,–
Cc1nc2ccc(Cl)cc2c(Cl)c1CCCl,> 100 µM,–,–
COC(=O)[C@]1(c2cc3ccccc3[nH]2)CC2CN(C(=O)OCc3ccccc3)C1C=C2OC (stereo partly drawn),> 100 µM,–,–
Nc1ncnc2c1ccn2COC(CO)CO,> 100 µM,–,–
CCOC(=O)/C(=C/c1ccc(C(F)(F)F)cc1)N(CC)CC,> 100 µM,–,–
CN(C)CCCN1N=Nc2cccc3cccc1c23,> 100 µM,–,–
Cc1ccc(S(=O)(=O)N(/N=C/C=C/c2ccccc2)c2nnc(-c3ccccc3)c(-c3ccccc3)n2)cc1,83.5 µM,–,–
O=C(/C=C\Sc1ccccn1)c1cccc(Br)c1,36.4 µM,18.1 µM,–
N#C/C(=C1C=C/C(=N/O)C(Cl)=C/1)c1ccc(Cl)cc1,55.3 µM,14.7 µM,–
ClC(Cl)c1nc(-c2ccccc2)n2nc(-c3ccccc3)cc2n1,1.71 µM,0.414 µM,–
CC1(C)CC(=O)c2c(nc3c4c([nH]c(-c5ccc([N+](=O)[O-])cc5)c24)CC(C)(C)C3)C1,> 100 µM,–,–
Cn1c(=O)nc2n(-c3cc(Cl)ccc3Cl)c3ccccc3nc-2c1=O,19.5 µM,–,–
CCCNC1=C(C)C(=O)C2=C(C1=O)[C@H](COC(N)=O)[C@]1(OC)[C@@H]3N[C@@H]3CN21,36.1 µM,–,–
CCOC(=O)CCC(NC(=O)c1ccc(Sc2nc3cc(N)cc(N)c3nc2-c2ccccc2)cc1)C(=O)OCC (stereo not drawn),> 100 µM,5.14 µM,–
COc1ccc(/C=c2/s/c(=C(\C#N)c3nc4ccccc4[nH]3)n(-c3ccccc3)c2=O)cc1,> 100 µM,–,–
COc1ccc(C2=C(c3cn(C)c4ccccc34)C(=O)OC2)cc1OC,> 100 µM,5.37 µM,–
Cc1ccc(NCCN(C)C)c2c(=O)c3cc(O)ccc3oc12,27 µM,–,–
O=C(O)c1cccc(SSc2cccc(C(=O)O)c2)c1,> 100 µM,–,–
NCCNC1=CC(=O)c2nc3ccccc3c3ccnc1c23,30.8 µM,4.3 µM,–

SMILES,TGI,GI50,outcome
O=S(=O)(SCCCCSS(=O)(=O)c1ccc(Cl)cc1)c1ccc(Cl)cc1,31.6 µM,–,–
O=S(=O)(Nc1ccc(Cl)c(F)c1)c1ccc(-c2cnc(C3CC3)o2)cc1,19.4 µM,3.36 µM,–
COc1cc([C@@H]2c3cc4c(c(O[C@@H]5O[C@H]6CO[C@@H](C)O[C@H]6[C@H](O)[C@@H]5O)c3C[C@H]3COC(=O)[C@@H]32)OCO4)cc(OC)c1O,> 100 µM,–,–
CC12c3c4cccc3Oc3cc(N)cc(c31)Oc1cc(N)cc(c12)O4,18.9 µM,–,–
N#CC1C(=O)C(=O)N(c2ccccc2)C1=O (stereo not drawn),> 100 µM,–,–
Cn1c(=O)nc2n(-c3cccc(Cl)c3)c3ccccc3nc-2c1=O,66.6 µM,–,–
CC(CO)CCNc1ncnc2c1ncn2CCC#N (stereo not drawn),> 100 µM,–,–
O=c1[nH]ccc2c1ccn2C1CC(O)C(CO)O1 (stereo not drawn),> 100 µM,–,–
CC12CCCCC1C(=O)C2(Cl)Cl (stereo not drawn),13.9 µM,–,–
CCOC(=O)C(Br)(C(N)=O)C1(O)OC(c2ccccc2)=C(Br)C1=O (stereo not drawn),> 100 µM,–,–
Nc1nc2c(c(=O)[nH]1)CN(CCCN1CCOCC1)CN2,> 100 µM,–,–
O=C(c1cccc(F)c1F)N1CCc2c([nH]c3ccccc23)C1c1ccc2c(c1)OCO2 (stereo not drawn),66 µM,–,–
CCOC(=O)C(=Cc1ccccc1Cl)C(=O)OCC,3.35 µM,–,–
C=C1C(=O)O[C@@H]2[C@@H]3O[C@@H](C[C@@H]13)[C@](C)(O)CC/C=C(\C)CCC[C@H]2C,26.6 µM,13.3 µM,–
CC1CCC2(OC1)OC1CC3C4CCC5CC(O)CCC5(C)C4CC(=O)OC3(C)C1C2C (stereo not drawn),> 100 µM,–,–
OC1CCCCCCCCCCC1SCCCCl (stereo not drawn),> 100 µM,–,–
CCN(CC)c1ccc2cc3ccc(=[N+](CC)CC)cc-3oc2c1,18.3 µM,–,–
N#CCC(=O)N1CCCOCCC1,> 100 µM,–,–
O=C1NC(=O)C(c2c[nH]c3cc(Br)ccc23)=C1c1cnc[nH]1,> 100 µM,–,–
Fc1cccc(F)c1C1SCc2nc3cc4ccccc4cc3n21 (stereo not drawn),> 100 µM,–,–
CCN(Cc1ccccn1)c1ccc(CO)c(Cl)c1,> 100 µM,28.3 µM,–
C=CC1(c2ccc(-c3ccccc3)cc2)OCCO1,> 100 µM,–,–
CCOC(=O)C(C)c1nc2cc3cccnc3c(Cl)c2[nH]c1=O (stereo not drawn),> 100 µM,–,–
CC1(C)Cc2c(c3ccccc3c3nc4c(nc23)c2c(c3ccccc34)OC(C)(C)C2)O1,> 100 µM,–,–
O=[N+]([O-])c1ccc2sc(C=Nc3ccc(O)cc3)cc2c1,> 100 µM,–,–

SMILES,TGI,GI50,outcome
CC(C)(O)[C@@H]1CC[C@](C)(C2[C@@H](O)C[C@@]3(C)C4C[C@H](OC5OCC(O)C(O)C5O)[C@H]5C(C)(C)[C@@H](OC6OCC(O)C(O)C6OC6OCC(O)C(O)C6O)CC[C@@]56C[C@@]46CC[C@]23C)O1 (stereo partly drawn),> 100 µM,–,–
Cc1ccc(-c2nc3cc(N4CCN(C)CC4)c(F)cc3[nH]2)cc1,50.8 µM,–,–
COc1cc2c(cc1O)CC[C@@H]1[C@@H]2CC[C@]2(C)[C@@H](OCCCN(C)C)CC[C@@H]12,1.03 µM,0.357 µM,–
COc1ccc(/C=C/C(=O)c2ccc(Cl)cc2Cl)cc1,37.8 µM,19 µM,–
N#C/C(=C\Nc1ccccn1)C(=O)C1CC1,> 100 µM,–,–
O=C(Nc1c(O)[nH]c(=S)[nH]c1=O)c1ccco1,> 100 µM,–,–
Cc1ccc(-c2nc3nc(-c4ccc(Br)cc4)nc(N4CCCNCC4)c3o2)cc1,16 µM,4.33 µM,–
CCOC(=O)C(C)c1nc2cc(N3CCOCC3)c(F)cc2[nH]c1=O (stereo not drawn),> 100 µM,–,–
CC1(C)O[C@@H](CC/C=C/CO)[C@H](CC/C=C/CO)O1,> 100 µM,–,–
O=C1OC(c2ccccc2)=N/C1=C\c1ccc(Br)cc1,> 100 µM,–,–
O=C(NC1C(O)C(O)C(CO)OC1n1cc(F)c(=O)[nH]c1=O)OCc1ccccc1 (stereo not drawn),> 100 µM,–,–
COC(=O)C(=O)C(C(=O)C(=O)Nc1ccc([N+](=O)[O-])cc1[N+](=O)[O-])c1nc2ccc(Cl)cc2[nH]c1=O (stereo not drawn),> 100 µM,–,–
COc1ccc2cc1Oc1ccc(cc1)CC1c3cc(OC)c(cc3CCN1C)Oc1c(OC)c(OC)cc3c1C(C2)N(C)CC3 (stereo not drawn),> 75 µM,–,–
Nc1cc(N)c2nc(-c3ccccc3)c(NCCc3ccc(Cl)c(Cl)c3)nc2c1,14.9 µM,3.35 µM,–
COc1ccc(C2Oc3ccc(Cl)cc3C=C2[N+](=O)[O-])cc1OC (stereo not drawn),2.86 µM,–,–
CCc1ccccc1NC(=O)C1=C(C)NC(C)=C(C(=O)Nc2c(CC)cccc2CC)C1c1ccc2c(c1)OCO2 (stereo not drawn),43.3 µM,–,–
O=C(CC1(O)C(=O)Nc2ccccc21)c1ccc2ccccc2c1 (stereo not drawn),> 100 µM,–,–
CC[C@H](C)[C@H]1NC(=O)[C@@H](NC(=O)[C@@H](CC(C)C)N(C)C(=O)C2CCCN2C(=O)[C@H](C)O)[C@@H](C)OC(=O)[C@@H]2Cc3ccccc3CN2C(=O)[C@@H]2CCCN2C(=O)[C@H](CC(C)C)NC(=O)[C@@H](C)C(=O)[C@H](C(C)C)OC(=O)C[C@@H]1O (stereo partly drawn),8.5 µM,–,–
O=C(O)CNCP(=O)(O)O,> 100 µM,–,–
CC(=O)Nc1c(Br)cc2c(c1Br)Cc1cc(Br)ccc1-2,20.6 µM,4.52 µM,–
CCn1c(=O)nc2n(-c3ccccc3)c3ccccc3nc-2c1=O,> 100 µM,–,–
O=C1NC(N/N=C/c2cccs2)=N/C1=C\c1ccco1,> 100 µM,–,–
CC(=O)OC(C)(C)C1O[C@@]23OC1C[C@@H](C)[C@@H]2[C@@]1(C)CC[C@@]24C[C@@]25CC[C@H](OC2OCC(O)C(O)C2O)C(C)(C)[C@@H]5CCC4[C@]1(C)[C@H]3O (stereo partly drawn),20.9 µM,–,–
COc1ccc(-c2nc(N3CCCC3)no2)cc1,> 100 µM,–,–
COC(=O)/C(=N\NC(N)=O)C(C(=O)C(=O)Nc1ccccc1C(=O)OC)c1nc2ccc(C(=O)c3ccccc3)cc2[nH]c1=O (stereo not drawn),> 100 µM,–,–

SMILES,TGI,GI50,outcome
C=CCCCCC1CCC2CCC(CCCC)N12 (stereo not drawn),–,–,inactive
S=c1ssnc1-c1ccccn1,52.7 µM,11.3 µM,–
C[C@@H](c1ccccc1)C(CC#N)[C@H]1CCC[C@]1(O)C#Cc1ccc2c(c1)OCO2 (stereo partly drawn),32.3 µM,–,–
CCCC(=O)OCC1OC(n2cnc3c(=S)nc(N)[nH]c32)C(OC(=O)CCC)C1OC(=O)CCC (stereo not drawn),> 100 µM,11.9 µM,–
CCOC(=O)C1=C(C)NC(C)=C(C(=O)OCC)C1c1ccc(Cl)cc1,27.9 µM,–,–
C[C@]12CCC(=O)C[C@H]1CCC(O)[C@@H]2Br (stereo partly drawn),> 100 µM,–,–
CC1=NN(c2cccc(Cl)c2)C2(C1=Cc1ccccc1)C(Cl)C(=O)N2c1nc2ccccc2s1 (stereo not drawn),65.6 µM,–,–
COc1ccc(Cc2c(-c3ccc(C)cc3)n[nH]c(=O)c2C2C(=O)N(c3ccccc3)N=C2c2ccccc2)cc1 (stereo not drawn),78.6 µM,–,–
COC1CC(Br)(C#N)C1 (stereo not drawn),> 100 µM,–,–
OC1c2[nH]c3ccccc3c2CCN2CCCCC12 (stereo not drawn),> 100 µM,–,–
C[C@@H](CC(O)C1OC1(C)C)[C@@H]1CC[C@]2(C)C3=CCC4C(C)(C)C(O)CC[C@]4(C)C3CCC12C (stereo partly drawn),86.4 µM,–,–
CC1(c2ccccc2)CCN(C2CC2)CO1 (stereo not drawn),> 100 µM,–,–
COc1cc(-c2nn(-c3ccc(NC(=O)NCCNS(=O)(=O)c4ccc(F)cc4)cc3)cc2-c2ccncc2)ccc1Cl,7.32 µM,0.843 µM,–
COc1nc2c(nc(N)n2C2OC(CO)C(O)C(O)C2O)c(=O)[nH]1 (stereo not drawn),> 100 µM,–,–
c1ccc(C2N=NN(c3ccccc3)C2N2CCCCC2)cc1 (stereo not drawn),> 100 µM,–,–
O=c1oc2c3ccc4ccccc4c3n(CCCN3CCCCC3)c2c2ccccc12,> 100 µM,–,–
COc1ccccc1/C=C1\C(=O)N(C(=O)c2ccc(NC(C)=O)cc2)N=C1C,> 100 µM,–,–
CCN(CC)CCNC(=O)c1cc2cc(NC(=O)c3cc4cc(N)ccc4[nH]3)ccc2[nH]1,69.8 µM,–,–
Cc1ccc(C(=O)CC(O)(C(F)(F)F)C(F)(F)F)cc1[N+](=O)[O-],5.3 µM,–,–
Nc1ccccc1NC(=O)c1ccc(CNC(=O)OCc2cccnc2)cc1,–,4.78 µM,–
O=C1OCC(C#Cc2ccccc2)=C1Br,35.7 µM,17.2 µM,–
COc1ccc2c(c1)c1c(C)c3cnccc3c(C)c1n2CCCN,0.137 µM and 0.255 µM,0.039 µM and 0.0232 µM,–
O=C(Nc1sccc1S(=O)(=O)c1ccc(Cl)cc1)c1ccc(Cl)cc1,> 100 µM,–,–
COc1ccc(-c2nc3c(-c4ccccc4)nc(-c4ccccc4)cn3c2-c2ccc(OC)cc2)cc1,> 100 µM,> 100 µM,–
O=C(Nc1ccc(F)cc1F)c1cc(F)ccc1O,> 100 µM,2.83 µM,–
